# Data published in PubChem BioAssay AID485281 (National Center for Advancing Translational Sciences (NCATS), 2010).
# About 260 (0.074%) of roughly 350,000 compounds were called active. Inconclusive means that the source gave no clear call. Such entries were picked first, then a sample of the others. The call rests on the fitted dose curve; in most records, active means well fitted inhibition curve with a large enough effect; inconclusive means small, poorly fitted or top-dose-only effect; inactive means no such curve, though single readings can be large or run the other way. Potencies of inconclusive entries are doubtful fits and often do not repeat.
# Target: Ferritin light chain (Equus caballus) (UniProt P02791)
# Assay: qHTS Assay for Identification of Novel General Anesthetics; further: nearly all actives have a fitted effect of over 20% in size
# Conditions: apoferritin/1-aminoanthracene competitive binding, fluorescence; activity change, negative = displacement: at 77.5 µM (top of the series)
# Method in brief: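 Apoferritin-based anesthetic binding model; compound displacement of fluorescent 1-AMA measured as endpoint fluorescence after 10 minutes at room temperature, scaled to free-ligand and complex controls.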
# On the % scale 0 is the no-effect control and ±100 the full control effect; potency means the concentration at half of the fitted maximal effect; tags describe the fitted curve by direction and shape.
# Chain of UniProt P02791 (P02791 whole entry, looked up): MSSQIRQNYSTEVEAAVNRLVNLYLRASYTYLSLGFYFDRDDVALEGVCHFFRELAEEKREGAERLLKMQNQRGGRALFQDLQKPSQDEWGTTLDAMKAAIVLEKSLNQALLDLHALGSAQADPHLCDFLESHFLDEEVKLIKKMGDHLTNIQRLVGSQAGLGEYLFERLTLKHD
SMILES,Potency,"activity change, negative = displacement"
CC(C)(C)c1cc(CCC(=O)N2CCC2)cc(C(C)(C)C)c1O,"inconclusive: 28.2 µM [inhibitor, partial curve]",
CCC(C)(C)NC(=O)C(c1cccc(OC)c1OC)N(Cc1ccc(OC)cc1)C(=O)CCC(=O)Nc1cc(C)on1 (configuration not stated),"inconclusive: 35.5 µM [inhibitor, single point]",
CCN(CC)S(=O)(=O)c1ccc2oc(C(=O)N(C)Cc3ccccc3)c(C)c2c1,"inconclusive: 5.62 µM [inhibitor, full curve]",
CC(C)Oc1ccc(CNC(=S)N/N=C/c2ccc([N+](=O)[O-])cc2)cc1,"inconclusive: 35.5 µM [inhibitor, partial curve]",
CCCn1c(SCC(=O)c2ccc(CC)cc2)n[nH]c1=O,"inconclusive: 35.5 µM [inhibitor, single point]",
CCn1c(=O)c(C(=O)NNC(=O)c2ccccc2Cl)c(O)c2ccccc21,inactive,
COc1ccccc1-n1c(C)cc(/C=C2\C(=N)N3N=C(CC(=O)N4CCOCC4)SC3=NC2=O)c1C,"inconclusive: 35.5 µM [inhibitor, partial curve]",
O=C(Nc1cccc(-c2cccc(F)c2)c1)C1CCN(C2CCC2)CC1,"inconclusive: 31.6 µM [inhibitor, single point]",
O=C(CNS(=O)(=O)c1cccs1)N1CCN(c2cccc(C(F)(F)F)c2)CC1,"inconclusive: 31.6 µM [inhibitor, single point]",
C/C(=N/Nc1ccc([N+](=O)[O-])cc1)c1ccc(C)cc1C,"inconclusive: 39.8 µM [inhibitor, partial curve]",
O=C(Nc1ccccc1)OCc1cc(-c2ccccc2Cl)on1,"inconclusive: 12.6 µM [inhibitor, partial curve]",
COc1ccccc1Oc1ccccc1[N+](=O)[O-],inactive,
CCCCOC(=O)CSC1=C(C#N)C(c2cccnc2)C(C(=O)OCC)=C(c2ccccc2)N1 (configuration not stated),"inconclusive: 31.6 µM [inhibitor, partial curve]",
O=C1c2ccccc2C(Nc2cccc(C(F)(F)F)c2)N1Cc1ccco1 (configuration not stated),"inconclusive: 50.1 µM [inhibitor, partial curve, poor fit]",
COC(=O)CCCCCNc1ccc(C(=O)OC)cc1N,inactive,
CC(=O)N1/C(=C/c2ccc(N(C)C)cc2)C(=O)c2ccccc21,"inconclusive: 35.5 µM [inhibitor, partial curve]",
O=C(Cn1[nH]c(=O)c2ccccc2c1=O)Nc1ccc2c(c1)CCC2,"inconclusive: 35.5 µM [inhibitor, partial curve]",
COc1ccc(-c2cc(O)cc(O)c2)cc1,"inconclusive: 28.2 µM [inhibitor, single point]",
CC(=O)Nc1sc(/C(C#N)=C/c2ccc(Cl)c(Cl)c2)nc1-c1ccc(C)cc1,inactive,
Cc1ccc(C(C)C)c(OCC(=O)NN=C2CCCC2)c1,"inconclusive: 44.7 µM [inhibitor, single point]",
Cc1ccccc1OCC(=O)N1CCCc2ccccc21,"inconclusive: 10 µM [inhibitor, partial curve]",

SMILES,Potency,"activity change, negative = displacement"
Cc1c(C(=O)N2CCN(c3cccc(Cl)c3)CC2)cccc1[N+](=O)[O-],"inconclusive: 35.5 µM [inhibitor, partial curve]",
Nc1nc(-c2ccc(NC(=O)c3ccco3)cc2)cs1,inactive,
COc1ccccc1NS(=O)(=O)c1cccc(C(=O)N/N=C/c2ccc(OCC(=O)O)cc2)c1,inactive,
S=C(NCc1ccc(Cl)c(Cl)c1)NCc1ccco1,inactive,
Cc1cc(C)c2cc(CN(CCO)Cc3nnnn3Cc3ccc(F)cc3)c(=O)[nH]c2c1,inactive,
O=C(COc1cccc2ccccc12)Nc1nc2ccccc2[nH]1,"inconclusive: 14.1 µM [inhibitor, partial curve]",
COC(=O)c1cc(S(=O)(=O)NCCc2ccc(Cl)cc2)c[nH]1,"inconclusive: 35.5 µM [inhibitor, partial curve, poor fit]",
Cc1cc(C)cc(NC(=O)c2ccc(S(=O)(=O)N(C)CC3CCCO3)cc2)c1 (configuration not stated),"inconclusive: 35.5 µM [inhibitor, partial curve, poor fit]",
CC(=O)c1ccc(OCc2cc(C(=O)N(C)CCOc3ccc(C)cc3)no2)cc1,"inconclusive: 44.7 µM [inhibitor, partial curve]",
CCOc1ccc(NC(=O)Cn2cc(C(=O)c3ccco3)c3ccccc32)cc1,"inconclusive: 5.01 µM [inhibitor, full curve]",
CCOc1ccc(CCNC(=O)CCc2cn(Cc3ccc(F)cc3)c3ccccc23)cc1,inactive,
O=C(CNc1ccccc1)N/N=C/c1ccc([N+](=O)[O-])o1,"inconclusive: 35.5 µM [inhibitor, single point]",
O=C1CC(/C=C/c2ccccc2)=Nc2ccccc2N1,"inconclusive: 11.2 µM [inhibitor, partial curve]",
O=C(CCc1ccccc1)C(=O)N1CCCC(C(=O)c2cccc(Cl)c2)C1 (configuration not stated),"inconclusive: 28.2 µM [inhibitor, partial curve]",
C#CCn1c(=NC(=O)c2cc(Cl)sc2Cl)sc2cc(S(N)(=O)=O)ccc21,"inconclusive: 12.6 µM [inhibitor, partial curve]",
CCn1ncc(Cl)c1C(=O)Nc1ccc2c(c1)CCC2,"inconclusive: 35.5 µM [inhibitor, single point]",
CCCCSc1nc2c(c(=O)[nH]1)CCC2,"inconclusive: 25.1 µM [inhibitor, partial curve]",
O=C(N1CCCC1)C12CCC3CC(CC(C3)C1)C2,"inconclusive: 28.2 µM [inhibitor, partial curve]",
CN1CCN(CC(=O)Nc2ccc(OCc3ccccc3)cc2)CC1,"inconclusive: 28.2 µM [inhibitor, partial curve]",
CO[C@@H]1/C=C\CC(=O)N2CCC[C@@H]2C(=O)OC[C@H](C)C(=O)OC[C@H]1C,,inactive: 3.49% [at 15.3 µM]
Cc1sc(NC(=O)C(C)C)c(C(=O)Nc2ccccc2)c1C,"inconclusive: 31.6 µM [inhibitor, single point]",
